# Measured values reported in PubChem BioAssay (Tox21).
# Inconclusive results, whose numbers are uncertain, are shown with a selection of clear calls. Potencies of inconclusive entries are doubtful fits and often do not repeat. Active and inactive are the calls of the source. Calls follow the shape of the dose curve; as a rule, active = well fitted inhibition curve with a large enough effect in the repeat runs (not every such curve was filed as active); inconclusive = weak or mixed curves; inactive = flat fitted curve, though single readings scatter.
# Target: Thyrotropin-releasing hormone receptor (Homo sapiens) (UniProt P34981)
# Experiment: qHTS assay to identify small molecule antagonists of the thyrotropin-releasing hormone receptor (TRHR) signaling pathway (AID 1346877)
# Settings: TRHR-HEK293, TRH-induced calcium fluorescence, antagonist mode; series mostly up to 51.3 µM; activity, negative = inhibition: at the top concentration
# Outline: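 In this cell-based calcium flux format, HEK293 cells expressing TRHR received test compound for 5 min before the agonist TRH (1 nM final). Dye loading lasted 2 h at 37 °C.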
# % is scaled to controls: 0 for no effect and ±100 for the full control effect; potency is read from the fitted curve at half-maximal effect; tags tell the direction and shape of the fitted curve.
# Sequence of UniProt P34981 (P34981 whole entry, looked up): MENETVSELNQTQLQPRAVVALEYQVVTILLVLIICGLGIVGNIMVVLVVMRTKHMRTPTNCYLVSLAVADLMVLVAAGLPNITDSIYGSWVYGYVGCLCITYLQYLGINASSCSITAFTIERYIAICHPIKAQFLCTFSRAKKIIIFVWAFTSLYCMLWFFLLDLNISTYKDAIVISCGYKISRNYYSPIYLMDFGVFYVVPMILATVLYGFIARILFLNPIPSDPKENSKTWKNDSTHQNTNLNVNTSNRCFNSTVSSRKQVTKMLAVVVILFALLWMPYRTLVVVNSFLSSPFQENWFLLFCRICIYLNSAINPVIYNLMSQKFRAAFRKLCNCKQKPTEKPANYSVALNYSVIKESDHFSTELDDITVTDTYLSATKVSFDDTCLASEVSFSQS
SMILES,Potency,"activity, negative = inhibition"
O=C(O)c1ccccc1Nc1cccc(C(F)(F)F)c1,inactive,
O=c1cccccc1O,"inconclusive: 6.13 µM [inhibitor, partial curve, poor fit]",
CC(=O)CC(C)(C)C1CCCCC1,,inactive: 3.48%
Cc1ccc(C=O)s1,,inactive: -0.73%
